These results are taken from publication PMC4336329 (PLoS ONE, 2015).

About 14,000 (4.5%) of roughly 310,000 compounds showed an effect of 50% or more. The effect is printed as a negative number. Some of the results follow.
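Note: peak tail current of the secondary pulse compared with the same well before compound.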

Sequence of human ether-à-go-go-related gene (hERG) potassium channel (Q12809 whole entry, looked up): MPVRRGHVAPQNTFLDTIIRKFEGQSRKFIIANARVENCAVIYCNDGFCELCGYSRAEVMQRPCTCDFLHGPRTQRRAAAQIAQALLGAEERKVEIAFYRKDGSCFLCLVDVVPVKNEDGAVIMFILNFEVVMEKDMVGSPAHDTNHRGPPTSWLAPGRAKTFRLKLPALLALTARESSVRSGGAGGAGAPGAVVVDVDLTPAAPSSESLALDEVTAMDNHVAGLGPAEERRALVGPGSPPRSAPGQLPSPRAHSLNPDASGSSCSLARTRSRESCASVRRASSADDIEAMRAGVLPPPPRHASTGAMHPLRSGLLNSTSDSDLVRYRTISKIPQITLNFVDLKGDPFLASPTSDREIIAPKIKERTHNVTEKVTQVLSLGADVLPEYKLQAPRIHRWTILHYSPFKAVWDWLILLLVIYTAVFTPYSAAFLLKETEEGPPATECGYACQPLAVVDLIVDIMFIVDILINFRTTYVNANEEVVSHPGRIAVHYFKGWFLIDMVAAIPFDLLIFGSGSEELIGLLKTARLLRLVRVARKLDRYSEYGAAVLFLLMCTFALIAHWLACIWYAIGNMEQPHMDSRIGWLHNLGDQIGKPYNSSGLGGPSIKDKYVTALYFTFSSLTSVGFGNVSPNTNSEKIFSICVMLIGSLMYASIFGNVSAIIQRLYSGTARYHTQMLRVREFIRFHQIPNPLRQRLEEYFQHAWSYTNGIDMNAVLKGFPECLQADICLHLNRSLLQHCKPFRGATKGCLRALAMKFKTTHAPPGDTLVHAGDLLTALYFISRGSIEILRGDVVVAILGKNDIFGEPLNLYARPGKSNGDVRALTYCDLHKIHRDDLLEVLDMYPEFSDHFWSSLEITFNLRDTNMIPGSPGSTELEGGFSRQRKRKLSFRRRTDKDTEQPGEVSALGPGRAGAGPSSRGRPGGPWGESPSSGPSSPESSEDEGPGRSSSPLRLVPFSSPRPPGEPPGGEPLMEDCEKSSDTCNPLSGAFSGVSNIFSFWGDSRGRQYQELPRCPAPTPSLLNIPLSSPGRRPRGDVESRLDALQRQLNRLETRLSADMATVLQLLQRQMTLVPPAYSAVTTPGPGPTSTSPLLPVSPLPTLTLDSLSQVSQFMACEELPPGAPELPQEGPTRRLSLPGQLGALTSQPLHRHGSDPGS

This assay concerns the target human ether-à-go-go-related gene (hERG) potassium channel (human, UniProt Q12809). Briefly: primary screen, population patch clamp on CHO cells stably expressing hERG.
For the molecule `Cc1nc(-c2ccc(F)cc2)c(CC(=O)N(C)CC(=O)Nc2ccccc2Br)s1`, the “hERG current change (%, negative = inhibition) at 10uM” value amounted to 6.65%.
For `COc1ccccc1C(=O)N1CCN(Cc2cccnc2)CC1.O=C(O)C(=O)O`, the “hERG current change (%, negative = inhibition) at 10uM” value is recorded as 19.3%.
Turning to `Cc1cc(C(=O)N2CCCC(C(=O)c3ccc(Cl)cc3C)C2)no1` (centres unmarked), the “hERG current change (%, negative = inhibition) at 10uM” value is listed as -28.6%.
Consider `O=C(CCCc1ccccc1)c1ccc2c(c1)OCCO2`, for which the “hERG current change (%, negative = inhibition) at 10uM” value is on record as -5.25%.
For the molecule `Cc1ccc(S(=O)(=O)N2CCCCC2CCNC(=O)C(=O)NC2CC2)cc1` (centres unmarked), the “hERG current change (%, negative = inhibition) at 10uM” value is reported as -25.7%.
With `Cc1oc2cc(O)ccc2c(=O)c1-c1cnn(-c2ccccc2)c1` the figure was 17.2%; with `O=C(NCc1ccccc1)C(=O)Nc1nc(-c2ccccc2)cs1`, 9.13%.
In the case of `Cc1cc(C(=O)N/N=C/c2ccc(Cl)c([N+](=O)[O-])c2)c(C)n1-c1ccc(F)cc1`, the “hERG current change (%, negative = inhibition) at 10uM” value is given as -2.41%.
Next, `S=C(c1ccc(-c2ccc(Cl)cc2Cl)o1)N1CCCCC1`: 9.81%; `O=C(N/N=C/c1ccc2cccc(OCc3ccccc3)c2n1)c1ccc(Cl)cc1`: 12.1%; `COc1ccc(NC(=O)c2cccc(N3C(=O)C4C5C=CC(C6CC56)C4C3=O)c2)c(OC)c1` (centres unmarked): 0.727%.
For `O=C1N=C(N2CCN(c3ccccc3)CC2)SC1Cc1ccccc1` (centres unmarked), the “hERG current change (%, negative = inhibition) at 10uM” value was -66.4%.
Next, `COc1ccc2nc(NC(=O)CSCc3c(C)noc3C)sc2c1`: 1.24%; `Cc1ccc(-n2c(N)c(C(=O)Nc3c(C)n(C)n(-c4ccccc4)c3=O)c3nc4ccccc4nc32)cc1`: -8.97%; `Cc1ccc(NC(=O)COc2ccccc2C(=O)NCCN(C)C)cc1`: 20.4%.
For `CC1(C)CC(NC(=O)C23CCC(C)(C2Br)C3(C)C)CC(C)(C)N1` (centres unmarked), the “hERG current change (%, negative = inhibition) at 10uM” value is listed as -26.9%.
With `S=C(Nc1ccc(Cl)c(Cl)c1)N1CCOCC1`, the “hERG current change (%, negative = inhibition) at 10uM” value was -8.76%.
In the case of `COc1ccc(OCCCC(=O)Nc2ccc3c(c2)OCCO3)cc1`, the “hERG current change (%, negative = inhibition) at 10uM” value is reported as 4.98%.
Take `O=C(c1cccc2ccccc12)C1CCCN(C(=O)c2ccc(N3CCOCC3)cc2)C1` (centres unmarked): the “hERG current change (%, negative = inhibition) at 10uM” value was -16.3%.
Regarding `CCOC(=O)CNC(=O)C(NC(=O)C1CCC(C)CC1)C(C)CC` (centres unmarked), the “hERG current change (%, negative = inhibition) at 10uM” value worked out at 10.6%.
In the case of `O=C1CC(c2ccccc2)=Nc2ccccc2N1`, the “hERG current change (%, negative = inhibition) at 10uM” value was -4.68%.
For the molecule `O=C(Nc1ccccc1Cl)c1cccc(NC(=O)C2CCCC2)c1`, the “hERG current change (%, negative = inhibition) at 10uM” value is -6%.
With `Cc1cccc(-c2n[nH]c(=S)n2/N=C/c2cccs2)c1` the figure was -14.6%.
Next, `COc1ccc(CN2C(=O)c3cccnc3C2Nc2cc(Cl)c(OC)cc2OC)cc1` (centres unmarked): 5.43%; `CN(NC1OC(=O)c2ccccc21)c1c([N+](=O)[O-])cc(C(F)(F)F)cc1[N+](=O)[O-]` (centres unmarked): 9.72%; `COC(=O)c1cc(O)c(OCc2ccccc2)c(O)c1`: 11.7%.
In the case of `COc1ccc(OC)c(S(=O)(=O)NCCc2cn3ccsc3n2)c1`, the “hERG current change (%, negative = inhibition) at 10uM” value came to 5.15%.
Next, `CCN1CCN(C(=S)c2ccc(-c3ccccc3)cc2)CC1`: -15.4%; `CCOc1ccc(NC(=O)c2ccc3c(c2)N(Cc2ccc(F)cc2)C(=O)CS3=O)cc1` (centres unmarked): -0.556%.
As for `CCC(=O)c1cc2c(C)cc(=O)oc2c(C)c1OC`, the “hERG current change (%, negative = inhibition) at 10uM” value is -4.4%.
Next, `COc1cc(OC)cc(C(=O)OCC(=O)Nc2cccc(C(C)=O)c2)c1`: 6.57%; `C/C(=N\O)C1(C)N(O)C(C)(C)C(c2ccco2)=[N+]1[O-]` (centres unmarked): 22.2%.
Next, `COCCn1nnnc1C(c1ccccc1OC)N1CCN(c2ccccc2F)CC1.Cl` (centres unmarked): -8.5%; `Cc1c(NC(=O)Nc2ccccc2C(F)(F)F)c(=O)n(-c2ccccc2)n1C`: 17.5%.
`Cc1cc(C)c(C)c(S(=O)(=O)N2CCN(C(=O)c3ccc4c(=O)n5c(nc4c3)CCC5)CC2)c1C`: the “hERG current change (%, negative = inhibition) at 10uM” value is -18.1%.
`COc1cccc(C(=O)N2CCN(C3CCC(c4ccccc4)CC3)CC2)c1OC.O=C(O)C(=O)O` (centres unmarked): the “hERG current change (%, negative = inhibition) at 10uM” value is recorded as -10.1%.
With `COc1ccc(NC(=O)CNC(c2ccccc2)c2ccccc2)cc1Cl` the figure was 18.4%; with `COc1ccc(Nc2nc3ccc(C)cc3cc2C#N)c(OC)c1`, 3.83%.
`O=C(COc1nncc2ccccc12)Nc1ccc(Br)cc1F`: the “hERG current change (%, negative = inhibition) at 10uM” value was determined as 12.3%.
Next, `Cc1ccc(C)n1-c1ccc(C(=O)NCc2cccnc2)cc1`: -3.13%; `Cc1ccc(C)c(OCCC(=O)N2CCN(S(=O)(=O)c3cc(C)ccc3C)CC2)c1`: -0.16%.
`CC1=NN(c2ccccc2)C(=O)C1N=Nc1cccc(O)c1` (centres unmarked): the “hERG current change (%, negative = inhibition) at 10uM” value was 14.9%.
In the case of `Cc1ccsc1/C=N/NC(=O)c1nnn(-c2nonc2N)c1-c1ccc2c(c1)OCO2`, the “hERG current change (%, negative = inhibition) at 10uM” value is recorded as 3.49%.
Next, `CC1CC(C)CN(CCOc2ccccc2-c2ccccc2)C1.O=C(O)C(=O)O` (centres unmarked): -68.5%.
